Laboratory results published in paper PMC5864733.

Molecular target: T1, CesT (residues 1-156), 6xHis-tagged, wild type (enteropathogenic E. coli (EPEC) O127:H6 E2348/69), P21244
T1 chain: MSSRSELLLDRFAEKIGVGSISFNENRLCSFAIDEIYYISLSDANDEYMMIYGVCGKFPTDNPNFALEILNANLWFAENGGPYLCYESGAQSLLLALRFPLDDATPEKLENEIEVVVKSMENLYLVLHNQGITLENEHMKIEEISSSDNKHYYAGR
Assay: SEC
Conditions: remark: other sources report otherwise

B1: CesT (residues 1-156), 6xHis-tagged, wild type, P21244 1-156 (natural protein)
chain: MSSRSELLLDRFAEKIGVGSISFNENRLCSFAIDEIYYISLSDANDEYMMIYGVCGKFPTDNPNFALEILNANLWFAENGGPYLCYESGAQSLLLALRFPLDDATPEKLENEIEVVVKSMENLYLVLHNQGITLENEHMKIEEISSSDNKHYYAGR
  stoichiometry N: 2
